Results published in the supplement of paper PMC8948288.
The sequences are guide strands of siRNAs; only the seed at positions 2 to 7 varies.

Assays:
H4 = experiment: cell viability relative to siNT1 (ATP content); H4 human neuroglioma and GL261 mouse glioma; higher = less toxic; conditions: siRNA concentration 10 nM; 96 h; human
GL261 = experiment: as above; conditions: siRNA concentration 25 nM; 96 h; mouse
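Also: cells reverse transfected with siRNA duplexes via lipid reagent, ATP read by luminescence, triplicate wells, values scaled to mean viability with non-targeting control siNT1.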

Sequence | cell viability (H4) [%] | cell viability (GL261) [%]
UUCUAUAACAUGUAAACCA | 75 | 56
UUCUAUCACAUGUAAACCA | 66.6 | 42
UUCUAUGACAUGUAAACCA | 105 | 51.1
UUCUAUUACAUGUAAACCA | 74 | 51.1
UUCUCAAACAUGUAAACCA | 107 | 38
UUCUCACACAUGUAAACCA | 66 | 25.2
UUCUCAGACAUGUAAACCA | 71.2 | 27
UUCUCAUACAUGUAAACCA | 67.6 | 32.2
UUCUCCAACAUGUAAACCA | 80.1 | 34.1
UUCUCCCACAUGUAAACCA | 52 | 17.6
UUCUCCGACAUGUAAACCA | 94.6 | 36.2
UUCUCCUACAUGUAAACCA | 59.9 | 24.7
UUCUCGAACAUGUAAACCA | 92.2 | 46
UUCUCGCACAUGUAAACCA | 61.3 | 19.9
UUCUCGGACAUGUAAACCA | 71.4 | 58.5
UUCUCGUACAUGUAAACCA | 89.6 | 22.7
UUCUCUAACAUGUAAACCA | 89.4 | 48.7
UUCUCUCACAUGUAAACCA | 63.5 | 18.1
UUCUCUGACAUGUAAACCA | 86.9 | 37.1
UUCUCUUACAUGUAAACCA | 91.3 | 32.1
UUCUGAAACAUGUAAACCA | 81.5 | 78
UUCUGACACAUGUAAACCA | 65 | 38.4
UUCUGAGACAUGUAAACCA | 64.9 | 54.5
UUCUGAUACAUGUAAACCA | 61.6 | 50.3

Sequence | cell viability (H4) [%] | cell viability (GL261) [%]
UUCUGCAACAUGUAAACCA | 56 | 37.8
UUCUGCCACAUGUAAACCA | 29.3 | 6.21
UUCUGCGACAUGUAAACCA | 92.8 | 35.4
UUCUGCUACAUGUAAACCA | 29.8 | 7.95
UUCUGGAACAUGUAAACCA | 64.5 | 27.3
UUCUGGCACAUGUAAACCA | 7.34 | 16.2
UUCUGGGACAUGUAAACCA | 8.37 | 4.3
UUCUGGUACAUGUAAACCA | 20.8 | 14.9
UUCUGUAACAUGUAAACCA | 83.4 | 61
UUCUGUCACAUGUAAACCA | 63.5 | 22
UUCUGUGACAUGUAAACCA | 67.6 | 38.2
UUCUGUUACAUGUAAACCA | 63.5 | 25.8
UUCUUAAACAUGUAAACCA | 92.1 | 68.2
UUCUUACACAUGUAAACCA | 83.9 | 49.2
UUCUUAGACAUGUAAACCA | 103 | 61.7
UUCUUAUACAUGUAAACCA | 103 | 77.4
UUCUUCAACAUGUAAACCA | 91.1 | 30.4
UUCUUCCACAUGUAAACCA | 44.1 | 28.7
UUCUUCGACAUGUAAACCA | 88.9 | 48.5
UUCUUCUACAUGUAAACCA | 54 | 16
UUCUUGAACAUGUAAACCA | 75.6 | 61.2
UUCUUGCACAUGUAAACCA | 14.4 | 21.3
UUCUUGGACAUGUAAACCA | 44.7 | 29.8
UUCUUGUACAUGUAAACCA | 74.9 | 23.7

Sequence | cell viability (H4) [%] | cell viability (GL261) [%]
UUCUUUAACAUGUAAACCA | 102 | 60.2
UUCUUUCACAUGUAAACCA | 47.8 | 43.6
UUCUUUGACAUGUAAACCA | 89.4 | 59.8
UUCUUUUACAUGUAAACCA | 91.5 | 42.1
UUGAAAAACAUGUAAACCA | 77.9 | 67.6
UUGAAACACAUGUAAACCA | 86.4 | 62.5
UUGAAAGACAUGUAAACCA | 104 | 49.7
UUGAAAUACAUGUAAACCA | 66.4 | 59.2
UUGAACAACAUGUAAACCA | 99.6 | 57
UUGAACCACAUGUAAACCA | 48.8 | 46.8
UUGAACGACAUGUAAACCA | 102 | 59
UUGAACUACAUGUAAACCA | 59.7 | 50.4
UUGAAGAACAUGUAAACCA | 98.8 | 60.8
UUGAAGCACAUGUAAACCA | 46.9 | 21.9
UUGAAGGACAUGUAAACCA | 53.9 | 45.7
UUGAAGUACAUGUAAACCA | 62.2 | 35
UUGAAUAACAUGUAAACCA | 105 | 55.3
UUGAAUCACAUGUAAACCA | 66.5 | 64.3
UUGAAUGACAUGUAAACCA | 87.3 | 71
UUGAAUUACAUGUAAACCA | 78.2 | 57.1
UUGACAAACAUGUAAACCA | 102 | 67.5
UUGACACACAUGUAAACCA | 56.5 | 63.3
UUGACAGACAUGUAAACCA | 65.5 | 50.5
UUGACAUACAUGUAAACCA | 112 | 35.7

Sequence | cell viability (H4) [%] | cell viability (GL261) [%]
UUGACCAACAUGUAAACCA | 80.6 | 51.5
UUGACCCACAUGUAAACCA | 47.1 | 31.3
UUGACCGACAUGUAAACCA | 71.1 | 48.2
UUGACCUACAUGUAAACCA | 46.2 | 56.3
UUGACGAACAUGUAAACCA | 109 | 56.7
UUGACGCACAUGUAAACCA | 69 | 51.8
UUGACGGACAUGUAAACCA | 81.1 | 45.4
UUGACGUACAUGUAAACCA | 71.9 | 56.4
UUGACUAACAUGUAAACCA | 106 | 73.7
UUGACUCACAUGUAAACCA | 85.9 | 25.5
UUGACUGACAUGUAAACCA | 95.7 | 55.3
UUGACUUACAUGUAAACCA | 104 | 62
UUGAGAAACAUGUAAACCA | 97 | 49.4
UUGAGACACAUGUAAACCA | 65.3 | 44.7
UUGAGAGACAUGUAAACCA | 88.6 | 56.9
UUGAGAUACAUGUAAACCA | 81.4 | 19.8
UUGAGCAACAUGUAAACCA | 79.7 | 48.8
UUGAGCCACAUGUAAACCA | 51.2 | 35.9
UUGAGCGACAUGUAAACCA | 80 | 71.8
UUGAGCUACAUGUAAACCA | 41 | 23.6
UUGAGGAACAUGUAAACCA | 83.4 | 49.2
UUGAGGCACAUGUAAACCA | 22.1 | 15
UUGAGGGACAUGUAAACCA | 44.1 | 30.2
UUGAGGUACAUGUAAACCA | 41.1 | 33.6

Sequence | cell viability (H4) [%] | cell viability (GL261) [%]
UUGAGUAACAUGUAAACCA | 81.9 | 58.5
UUGAGUCACAUGUAAACCA | 79.9 | 28.3
UUGAGUGACAUGUAAACCA | 86.3 | 58.6
UUGAGUUACAUGUAAACCA | 88.5 | 53.8
UUGAUAAACAUGUAAACCA | 88.2 | 62.2
UUGAUACACAUGUAAACCA | 74.8 | 40.8
UUGAUAGACAUGUAAACCA | 77.1 | 49
UUGAUAUACAUGUAAACCA | 79 | 81.3
UUGAUCAACAUGUAAACCA | 82.4 | 58
UUGAUCCACAUGUAAACCA | 48.1 | 38.9
UUGAUCGACAUGUAAACCA | 76.9 | 55.2
UUGAUCUACAUGUAAACCA | 69.8 | 61.4
UUGAUGAACAUGUAAACCA | 96 | 26.9
UUGAUGCACAUGUAAACCA | 38.1 | 22.9
UUGAUGGACAUGUAAACCA | 68.7 | 22.5
UUGAUGUACAUGUAAACCA | 58.7 | 33
UUGAUUAACAUGUAAACCA | 100 | 53.5
UUGAUUCACAUGUAAACCA | 72.9 | 38.3
UUGAUUGACAUGUAAACCA | 98.6 | 60.7
UUGAUUUACAUGUAAACCA | 82.2 | 61.8
UUGCAAAACAUGUAAACCA | 109 | 59
UUGCAACACAUGUAAACCA | 34.2 | 21.6
